Assay [1] has as its system HSkMC (human skeletal muscle cells). Put plainly: cytotoxicity call (relative viability < 0.9). The following applies: 10 µM.
The test system of assay [2] is HepG2. Put plainly: cytotoxicity call (relative viability < 0.9). As to conditions: 10 µM.
For assay [3], the system named is S. aureus RN4220. Briefly: growth inhibition call (relative growth <= 0.2). As to conditions: 50 µM.

This is one part of the list.

Regarding `Cc1ccc(S(=O)(=O)Nc2ccc3c(c2)C(=O)N([C@H](C)CO)C[C@@H](C)[C@H](CN(C)Cc2ccc(Cl)c(Cl)c2)OCCCC[C@H](C)O3)cc1`, the cytotoxicity call in assay [1] was “inactive”. In addition, the cytotoxicity call in assay [2] was “active”. In addition, the growth inhibition call in assay [3] was “inactive”.
Regarding `C[C@@H]1CN([C@@H](C)CO)C(=O)c2cc(NC(=O)CCC(F)(F)F)ccc2O[C@@H](C)CCCCO[C@H]1CN(C)C(=O)c1ccccc1`, the cytotoxicity call in assay [1] and in assay [2] was “inactive” throughout. Also, the growth inhibition call in assay [3] is “inactive”.
In the case of `C[C@@H]1CN([C@@H](C)CO)C(=O)c2cc(NC(=O)C3CC3)ccc2O[C@H]1CN(C)S(=O)(=O)c1ccc(F)cc1`, the cytotoxicity call in assay [1] and in assay [2] was “inactive” each time. Further, the growth inhibition call in assay [3] was “inactive”.
With `Cc1noc(C)c1NC(=O)Nc1ccc2c(c1)C(=O)N([C@@H](C)CO)C[C@@H](C)[C@H](CN(C)S(C)(=O)=O)O2`, the cytotoxicity call in assay [1] and in assay [2] was “inactive” each time. Further, in assay [3], the growth inhibition call was “inactive”.
Turning to `Cc1ccc(S(=O)(=O)Nc2cccc3c2O[C@@H](CN(C)Cc2ccc(Oc4ccccc4)cc2)[C@@H](C)CN([C@H](C)CO)C3=O)cc1`, the cytotoxicity call in assay [1] and in assay [2] was “inactive” throughout. Further, the growth inhibition call in assay [3] was “inactive”.
In the case of `C[C@@H]1CCCCO[C@@H](CN(C)S(=O)(=O)c2ccccc2)[C@H](C)CN([C@@H](C)CO)C(=O)c2cc(NC(=O)c3ccccc3)ccc2O1`, the cytotoxicity call in assay [1] and in assay [2] was “inactive” each time. In addition, the growth inhibition call in assay [3] is “inactive”.
Consider `Cc1noc(C)c1NC(=O)N(C)C[C@H]1Oc2c(NC(=O)NC(C)C)cccc2C(=O)N([C@H](C)CO)C[C@@H]1C`, for which the cytotoxicity call in assay [1] and in assay [2] was “inactive” in each case. Further, in assay [3], the growth inhibition call was “inactive”.
In the case of `COc1ccc(NC(=O)N(C)C[C@@H]2OCCCC[C@@H](C)Oc3ccc(NC(=O)NC4CCCCC4)cc3C(=O)N([C@H](C)CO)C[C@H]2C)cc1`, the cytotoxicity call in assay [1] and in assay [2] was “inactive” each time. Further, the growth inhibition call in assay [3] is “inactive”.
For `C[C@@H]1CN([C@@H](C)CO)C(=O)Cc2cc(NC(=O)Nc3ccc(C(F)(F)F)cc3)ccc2O[C@@H]1CN(C)Cc1ccc(-c2ccccc2)cc1`, the cytotoxicity call in assay [1] and in assay [2] was “active” in each case. In addition, the growth inhibition call in assay [3] is “inactive”.
For `NC1=NC(=O)[C@@H]2N=C(Br)N([C@H]3O[C@H]4COP(=O)(O)O[C@@H]4[C@@H]3O)[C@H]2N1`, the cytotoxicity call in assay [1] and in assay [2] was “inactive” in each case. Moreover, the growth inhibition call in assay [3] was “inactive”.
For `C[C@@H]1CN([C@@H](C)CO)C(=O)c2cc(C#CCN(C)C)cnc2O[C@@H]1CN(C)S(=O)(=O)c1cn(C)cn1`, the cytotoxicity call in assay [1] and in assay [2] was “inactive” each time. Moreover, in assay [3], the growth inhibition call is “inactive”.
Regarding `CCS(=O)(=O)N1C[C@]2(C1)CN([C@H](CO)c1[nH]c3cc(ccc3c12)OC)S(=O)(=O)c1ccc(cc1)C`, the cytotoxicity call in assay [1] and in assay [2] was “inactive” throughout. The growth inhibition call in assay [3] was “inactive”.
For the molecule `C[C@H](CO)N1C[C@H](C)[C@@H](CN(C)Cc2ccc(C(=O)Nc3ccccc3N)cc2)Oc2ccc(NC(=O)Cc3cn(C)c4ccccc34)cc2C1=O`, the cytotoxicity call in assay [1] and in assay [2] was “inactive” in each case. In addition, the growth inhibition call in assay [3] was “inactive”.
Regarding `O=C(C[C@@H]1CC[C@H]2[C@@H](COC[C@@H](O)CN2S(=O)(=O)c2ccc(Cl)cc2)O1)NCc1ccncn1`, the cytotoxicity call in assay [1] and in assay [2] was “inactive” throughout. For the same molecule, the growth inhibition call in assay [3] was “inactive”.
In the case of `COC(=O)Cn1c(=N)n(C)c2ccccc21`, the cytotoxicity call in assay [1] and in assay [2] was “inactive” in each case. In addition, in assay [3], the growth inhibition call is “inactive”.
Turning to `C[C@H]1CN([C@@H](C)CO)C(=O)c2cc(-c3ccc(C(=O)N(C)C)cc3)cnc2O[C@H]1CN(C)C(=O)CN(C)C`, the cytotoxicity call in assay [1] and in assay [2] was “inactive” in each case. Moreover, the growth inhibition call in assay [3] was “inactive”.
In the case of `C[C@H]1CN([C@@H](C)CO)C(=O)c2c(c3ccccc3n2C)-c2ccccc2CO[C@H]1CN(C)S(=O)(=O)c1ccc(Cl)cc1`, the cytotoxicity call in assay [1] is “inactive”. Further, the cytotoxicity call in assay [2] is “active”. In addition, the growth inhibition call in assay [3] is “inactive”.
In the case of `O=C(C[C@@H]1CC[C@H](NC(=O)c2cccnc2)[C@@H](CO)O1)NCCN1CCCCC1`, the cytotoxicity call in assay [1] and in assay [2] was “inactive” throughout. For the same molecule, in assay [3], the growth inhibition call was “inactive”.
Take `COc1ccc(NC(=O)Nc2ccc3c(c2)C(=O)N([C@H](C)CO)C[C@H](C)[C@@H](CN(C)C(=O)C2CCCCC2)OCCCC[C@H](C)O3)cc1`: the cytotoxicity call in assay [1] and in assay [2] was “inactive” each time. Further, the growth inhibition call in assay [3] was “inactive”.
For the molecule `C[C@@H]1CN([C@H](C)CO)C(=O)Cc2cc(NC(=O)Cn3cnnn3)ccc2O[C@H]1CN(C)C(=O)Nc1ccc(C(F)(F)F)cc1`, the cytotoxicity call in assay [1] and in assay [2] was “inactive” each time. For the same molecule, in assay [3], the growth inhibition call is “inactive”.
On to `C[C@@H]1CN([C@@H](C)CO)C(=O)c2cc(NS(=O)(=O)c3ccc(Cl)cc3)ccc2O[C@H]1CN(C)C(=O)Nc1cccc2ccccc12`, for which the cytotoxicity call in assay [1] and in assay [2] was “inactive” in each case. In assay [3], the growth inhibition call is “inactive”.
As for `C[C@@H]1CCCCO[C@@H](CN(C)Cc2ccc(C(F)(F)F)cc2)[C@H](C)CN([C@@H](C)CO)C(=O)c2cc(NC(=O)Cc3ccccc3)ccc2O1`, the cytotoxicity call in assay [1] and in assay [2] was “inactive” in each case. In assay [3], the growth inhibition call is “inactive”.
As for `COc1ccc(S(=O)(=O)Nc2ccc3c(c2)C(=O)N([C@H](C)CO)C[C@H](C)[C@@H](CN(C)C(=O)NC2CCCCC2)OCCCC[C@H](C)O3)cc1`, the cytotoxicity call in assay [1] and in assay [2] was “inactive” in each case. Also, the growth inhibition call in assay [3] was “inactive”.
In the case of `C[C@@H]1CN([C@@H](C)CO)S(=O)(=O)c2ccc(-c3cccnc3)cc2O[C@@H]1CN(C)C(=O)c1cccc(F)c1`, the cytotoxicity call in assay [1] and in assay [2] was “inactive” throughout. Also, the growth inhibition call in assay [3] was “inactive”.
As to `C[C@@H]1CCCCO[C@H](CN(C)C(=O)c2ccccc2)[C@@H](C)CN([C@H](C)CO)C(=O)c2cc(NC(=O)Nc3ccccc3)ccc2O1`, the cytotoxicity call in assay [1] and in assay [2] was “inactive” in each case. The growth inhibition call in assay [3] was “inactive”.
As for `C[C@H](CO)N1C[C@H](C)[C@@H](CN(C)C(=O)C2CCCCC2)OCCCC[C@H](C)Oc2ccc(NC(=O)Nc3ccc(F)cc3)cc2C1=O`, the cytotoxicity call in assay [1] and in assay [2] was “inactive” throughout. In addition, the growth inhibition call in assay [3] is “inactive”.

The values above are taken from the antibiotic and cytotoxicity screens of Wong et al. (2023).
